From PubChem BioAssay AID1159614 (National Center for Advancing Translational Sciences (NCATS), 2016)
Screen size: about 45,000 compounds; about 65 (0.1%) were called active. The call rests on the fitted dose curve; in most records, active means well fitted activation curve with a large enough effect; inconclusive means small, poorly fitted or top-dose-only effect; inactive means no such curve, though single readings can be large or run the other way. This is one part of the list.

Each compound was assayed against Galactocerebrosidase (Homo sapiens) (UniProt P54803) (assay: A Novel Cell-Based Assay to Identify Small Molecules for B -Galactocerebrosidase). Conditions: 145M-Twi-hGALC-G270D cells (Twitcher mouse brain line with human GALC G270D), HMU-beta-Gal fluorescence, 48 h; series mostly up to 57.5 µM; activation: at the top concentration.
Sequence of UniProt P54803 (P54803 whole entry, looked up): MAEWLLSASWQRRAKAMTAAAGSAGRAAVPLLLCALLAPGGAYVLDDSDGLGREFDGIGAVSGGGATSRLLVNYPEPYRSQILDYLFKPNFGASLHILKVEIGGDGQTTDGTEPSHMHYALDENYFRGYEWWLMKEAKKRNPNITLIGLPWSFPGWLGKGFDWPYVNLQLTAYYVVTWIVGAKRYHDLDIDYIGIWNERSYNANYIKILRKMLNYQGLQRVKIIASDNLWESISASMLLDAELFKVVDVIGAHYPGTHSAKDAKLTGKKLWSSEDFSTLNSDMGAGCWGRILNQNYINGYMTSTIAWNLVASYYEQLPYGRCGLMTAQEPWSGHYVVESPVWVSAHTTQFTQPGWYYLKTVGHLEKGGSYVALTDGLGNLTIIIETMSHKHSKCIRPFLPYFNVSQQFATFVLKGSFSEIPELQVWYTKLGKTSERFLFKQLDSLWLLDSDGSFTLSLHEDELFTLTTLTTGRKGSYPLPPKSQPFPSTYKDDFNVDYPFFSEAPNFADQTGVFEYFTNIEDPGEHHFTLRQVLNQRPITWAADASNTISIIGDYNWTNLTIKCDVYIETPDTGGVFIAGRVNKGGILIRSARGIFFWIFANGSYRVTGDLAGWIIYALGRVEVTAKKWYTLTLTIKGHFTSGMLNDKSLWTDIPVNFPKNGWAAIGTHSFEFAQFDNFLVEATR
Summary of the method: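 Fluorogenic HMU-b-Gal hydrolysis (0.1 mM final, pH 5.2 citrate-phosphate with 1 mg/mL sodium taurocholate; carbonate stop buffer) measures mutant GALC activity after compound treatment of live 145M-Twi Twitcher brain cells stably carrying human GALC-G270D, with wild-type GALC line alongside; activation sought.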
Further: 0% is about no effect; nearly all actives have a fitted effect of over 65% in size.

activation, inactive:
COc1ccc(N2C(=O)CS(=O)(=O)C23C(=O)N(Cc2cccc(F)c2)c2ccccc23)cc1OC (stereo unspecified) -24.4%
Cc1cc(=O)[nH]c2nnc(SCc3ccc(F)cc3)n12 -16.6%
CCOC(=O)c1ccc(-n2c(CCC(=O)O)ccc2-c2ccc(Br)cc2)cc1 -8.29%
COc1ccc(Cn2c(SCC(=O)NCc3ccc(Cl)cc3)nc3ccsc3c2=O)cc1 -17.5%
Cc1noc(-c2ccc(-c3noc(-c4cccc(F)c4)n3)cc2)n1 -20.5%
NC(=O)C1CCN(C(=O)c2cccc(NC(=O)c3nsc4ccccc34)c2)CC1 -9.51%
O=C(C1COc2ccccc2O1)N1CCN(c2nc3ccc(F)cc3s2)CC1 (stereo unspecified) -20.4%
CSC1=NC2(CCN(C(=O)NC3CCCCC3)CC2)N=C1c1ccc(C)cc1 -10%
COc1ccc(N2Cc3cccc(C(=O)Nc4cc(C)cc(C)c4)c3C2=O)cc1 -9.74%
CCc1cccc(C)c1Nc1c(-c2ccccc2)nc2sccn12 -4.8%
CCc1c(CN2CCN(c3cccc(C)c3C)CC2)csc1C 2.31%
Fc1ccc(CNc2ncnc3onc(-c4ccc(F)cc4)c23)cc1 -25.7%
Cc1ccc(C#N)c(=O)n1CC(=O)Nc1ccccc1C(F)(F)F 17.4%
O=C(C1COc2ccccc2O1)N(Cc1cccnc1)c1nc2ccc(Cl)cc2s1 (stereo unspecified) -15.7%
Cn1c(=O)c2c(nc(SCC(=O)Nc3ccccc3)n2Cc2ccccc2F)n(C)c1=O -13.5%
Nc1c(C(=O)Nc2ccc(OC(F)(F)F)cc2)nnn1Cc1ccccc1 -11.9%
CCOc1ccc(CNC(=O)CSc2cc(=O)n(CC)c3ccccc23)cc1 -18.2%
CCN(CC)S(=O)(=O)c1nnc(NC(=O)COc2ccccc2F)s1 -14.9%
Cc1cccc(C)c1NC(=O)NCCc1c[nH]c2ccccc12 -6.27%
COCCCn1c(=N)c(C(=O)NCc2ccco2)cc2c(=O)n3ccccc3nc21 -2.16%
CCCNC(=O)C1CCC(Cn2c(=O)c3sccc3n(Cc3ccccc3F)c2=O)CC1 (stereo unspecified) -8.66%
Cc1ccc2c(c1)-c1onc(C(=O)N3CCN(c4ccc(Cl)cc4)CC3)c1CO2 -4.67%
O=C(NC1CCCCC1)c1ccc(Cn2c(SCc3ccc(F)cc3)nc3cccnc32)cc1 -7.23%
Cc1ccc(-n2c3nc(=O)[nH]c(=O)c-3cc3c(C)nn(-c4ccccc4)c32)cc1Cl -11%
CCOC(=O)N1CCN(Cc2nc3cc(NC(=O)c4ccccc4[N+](=O)[O-])ccc3n2C(C)C)CC1 1.18%
Brc1ccc(-c2nc3ccccn3c2Nc2ccc3c(c2)OCCO3)o1 -35.5%
O=S(=O)(c1ccccc1)c1nnn2c1nc(NCc1ccc(F)cc1)c1sccc12 -18.2%
COc1cccc(N2CCN(c3ncnc4c3nc3n4CCCCC3)CC2)c1 1.72%
Cc1oc(-c2ccc(Cl)cc2)nc1CS(=O)CC(=O)N1CCN(c2cccc(C(F)(F)F)c2)CC1 (stereo unspecified) -16.9%
CCCCN(CC)C(=O)CSc1nc2n[nH]c(C)c2c(=N)n1-c1cccc(OC)c1 -14.5%
CNCCCN1c2ccccc2CCc2ccccc21 -12.1%
COc1ccccc1CNC(=O)CCn1nc(C)c2c(C)n(-c3ccccc3)nc2c1=O -16.5%
COc1ccc(OCC(=O)NC2CC(=O)N(c3cccc(OC)c3)C2)cc1 (stereo unspecified) -9.64%
CN(C)S(=O)(=O)c1ccc2c(c1)N(CC(=O)Nc1ccc(OC(F)(F)F)cc1)C(=O)CS2 -35.7%
C=Cc1ccc(Cn2c(C(=O)O)c(CNC3CCCC3)c3ccc(C)cc32)cc1 -7.53%
CCOC(=O)c1c(S(=O)(=O)N2CCC(C(=O)NCc3ccc(F)cc3)CC2)c(C)n(C)c1C -18.6%
Cc1cccc(N(C)C(=O)CCS(=O)(=O)c2ccc3c(c2)oc(=O)n3C)c1 -17.7%
COc1ccc(NC(=O)c2cc(S(=O)(=O)N3CCCCCC3)cn2C)c(OC)c1 1.54%
CCN(CC)CCOc1ccccc1C(=O)CCc1ccccc1 -13.8%
COc1ccc(NC(=O)CN2CCN(Cc3ccc(F)cc3)S2(=O)=O)cc1Cl -13.6%
CC(C(=O)NCc1ccc(Cl)cc1)n1ccc2cc(S(=O)(=O)N3CCCCCC3)ccc21 (stereo unspecified) -0.135%
CCCN(CCC)CC(O)Cn1cc(/C=C/C(=O)c2ccc(C)cc2)c2ccccc21 (stereo unspecified) -10.2%
CCC(=O)N1CCc2cc(Br)cc(S(=O)(=O)N3CCN(c4ccc(C)cc4)C(C)C3)c21 (stereo unspecified) -0.0868%
CCOC(=O)c1c(C)[nH]c(C)c1S(=O)(=O)N1CCC(C(=O)N2CCN(c3ccccc3)CC2)CC1 -8.65%
O=C(NCc1ccccc1Cl)C1CCCN(S(=O)(=O)c2cccc3nsnc23)C1 (stereo unspecified) -15.5%
COc1ccc(OC)c(CNC(=O)c2c3c(nc4ccccc24)C(=O)N(C2CCCCC2)C3)c1 -7.77%
CCOC(=O)c1c(C)[nH]c(C)c1S(=O)(=O)N1CCC(C(=O)N2CCN(c3cccc(Cl)c3)CC2)CC1 -6.23%
Cc1ccccc1-c1noc(-c2cccnc2NCc2ccco2)n1 -9.74%
COc1ccc(N2CCN(c3csc4ccc(Cl)cc4c3=O)CC2)cc1 -16.9%
Cc1c(C(=O)N(Cc2ccc(N(C)C)cc2)CC2CCCO2)oc2ccc(Cl)cc12 (stereo unspecified) -15.8%
CCOc1ccc(Nc2nc3cc(Cl)c(Cl)cc3nc2-n2nc(C)cc2C)cc1 -12.2%
COc1ccc(Cl)cc1NC(=O)c1cn(C2CCCCC2)c(=O)c2c1c1ccccc1n2C -14.9%
COc1ccccc1CCNC(=O)C1CCN(c2nnc(-n3cccc3CNc3ccc(C)cc3)s2)CC1 -5.69%
CCOC(=O)c1c(C)[nH]c(C)c1S(=O)(=O)N1CCCC(C(=O)Nc2ccc(C)cn2)C1 (stereo unspecified) -6.56%
CCOc1ccc(Nc2ncnc3c2nc2n3CCCC2)cc1 -8.44%
O=C1OC(CN2CCOCC2)CN1/N=C/c1ccc([N+](=O)[O-])o1 (stereo unspecified) -10.7%
CCc1ccccc1Nc1nn2c(=O)c3ccc(C(=O)NCc4ccccc4OC)cc3nc2s1 -8.34%
Cc1ccc(-n2nc(CO)c(C(=O)NCCCc3ccccc3)n2)cc1C -15.3%
CCN(c1ccccc1)c1ccc2cc(S(=O)(=O)N3CCCC3)ccc2n1 -16.9%
COc1ccccc1Cn1cc(C(=O)c2ccc(C)cc2)c(=O)c2cc(C)ccc21 -16.4%
COc1ccc(CNC(=O)c2cc(-c3ccc(C)cc3)nc3n[nH]c(-c4ccc(Br)cc4)c23)cc1 -14.1%
NS(=O)(=O)c1ccc(NC(=O)CN2C(=O)COc3ccc(Cl)cc32)cc1 -7.05%
O=C(O)c1ccc2nc(-c3cc4cccc(O)c4oc3=O)[nH]c2c1 -14.2%
Cc1ccc(C)c(S(=O)(=O)c2nnn3c2nc(NC(C)C)c2sccc23)c1 -0.615%
CCOC(=O)CNC(=O)Nc1cc(C(=O)NCc2ccccc2OC)ccc1N1CCCC1 -5.87%
CCOC(=O)c1oc2ccc(S(=O)(=O)n3nc(-c4cc(OC)c(OC)c(OC)c4)cc3N)cc2c1C -3.69%
Cc1ccccc1C(=O)NC1(C(F)(F)F)N=C(c2ccccc2)N(C2CCCCC2)C1=O (stereo unspecified) -8.3%
CCOc1ccccc1CNC(=O)c1c(C)oc2ncnc(N3CCOCC3)c12 -7.57%
CCOc1ccc(NC(=O)CSc2ccc(-c3sc(-c4ccccc4)nc3C)nn2)cc1 -13.1%
COC(=O)C(CCSC)NC(=O)c1cc2c(n(-c3ccc(Cl)cc3)c1=O)CCCC2=O (stereo unspecified) -16.1%
O=C(NC(=O)c1ccccc1)Nc1ccc(-c2cc(C(F)(F)F)nn2-c2ccccc2)cc1 -10.2%
CCOc1ccc(NC(=O)C2CCCN(c3ccc(Sc4ccc(C)cc4)nn3)C2)cc1 (stereo unspecified) -7.95%
CCC(Oc1ccccc1F)C(=O)N1CCC(c2nc3ccccc3s2)CC1 (stereo unspecified) -9.98%
COc1ccc(Cl)cc1NC(=O)C1CCCN(c2ncnc3onc(C)c23)C1 (stereo unspecified) -17%
CC(C)C(=O)Nc1ccccc1OCc1cc(=O)n2ccccc2n1 1.35%
Cc1ccc2oc(-c3ccc(C)c(NC(=O)c4ccc(N5CCC(C)CC5)c([N+](=O)[O-])c4)c3)nc2c1 -25%
O=C(CCCN1C(=O)C(c2ccccc2)Oc2cccnc21)Nc1ccccc1C(F)(F)F (stereo unspecified) -2.35%
CCCn1c(CNC(=O)c2ccc(F)cc2)nc2ccccc21 -11.6%
CC(C)CN(CCCNC(=O)CN1N=C(c2ccc(Cl)cc2)CCC1=O)CC(C)C -15.9%
Cc1cccc(NC(=O)c2ccc3snnc3c2)c1C -8.84%
O=c1c2cc3c(cc2n(Cc2ccc(F)cc2)c(=O)n1Cc1nc(-c2ccccc2)no1)OCO3 -3.58%
Cc1cccc(NC(=O)c2cc3c(=O)n4cccc(C)c4nc3s2)c1C 1.74%
CCOc1ccccc1NC(=O)C(CC(C)C)NS(=O)(=O)c1ccc2c(c1)oc(=O)n2C (stereo unspecified) 0.333%
COc1cc(CNC(=O)c2ccc3nc(CCc4ccccc4)oc3c2)cc(OC)c1OC -11%
COC(=O)c1c(SC)nc2ccccc2c1OCc1ccc(Cl)cc1 -6.55%
Clc1ccc2c(c1)NC(c1ccncc1)=NC(c1cccs1)=N2 -12.7%
COc1ccc2c(c1)CCc1c(C(=O)Nc3c(C)nn(Cc4ccccc4C)c3C)noc1-2 -6.81%
Cc1ccsc1C(=CCCN1CCC[C@@H](C(=O)O)C1)c1sccc1C -15.9%
CNS(=O)(=O)c1cn(CC(=O)N2CCN(c3cccc(C)c3C)CC2)cc1S(=O)(=O)NC -8.7%
O=c1cc(-c2ccccc2)nc(SCc2nc(-c3ccc(Cl)cc3)no2)[nH]1 -6.6%
Cc1ccc(S(=O)(=O)N(Cc2nc(-c3cccc(C)c3)no2)C2CCCCC2)cc1 -5.37%
O=C(COCc1cc(-c2ccc3c(c2)OCO3)on1)N1CCN(c2cccc(Cl)c2)CC1 -17.2%
CCN1CCN(C(=O)c2cnn(-c3cccc(Cl)c3)c2C2CCN(C(=O)OC(C)(C)C)CC2)CC1 -27.2%
CCc1nonc1NC(=O)c1oc2ccc(C)cc2c1C -24.8%
COc1ccc(-c2cc(-c3ccc4c(c3)NC(=O)CO4)nc3c2COc2ccc(F)cc2-3)cc1 -15%
CCOC(=O)c1ccc(-n2c(-c3ccc(C)cc3)c(C)n3c4c(=O)n(C)c(=O)n(C)c4nc23)cc1 -11%
